Reference: paper PMC7794610
These are yes or no findings as the source states them, for the method shown. Binding seen in cells or lysates may run through a third protein. Some binding calls cover weakened binding; strength is not graded here. For part of these data: Where a sequence is shown, tags or fusion partners need not be part of it. One block for each molecule: values may come before it.

Chains of the proteins cited; added tags and fusions are not shown. Residues count along the entry.
UniProt P52164: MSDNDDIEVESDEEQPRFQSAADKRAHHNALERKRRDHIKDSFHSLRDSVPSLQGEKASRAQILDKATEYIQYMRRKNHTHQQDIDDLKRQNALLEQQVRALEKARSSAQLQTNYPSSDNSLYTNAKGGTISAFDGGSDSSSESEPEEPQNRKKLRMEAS
UniProt P19838, residues 1-433: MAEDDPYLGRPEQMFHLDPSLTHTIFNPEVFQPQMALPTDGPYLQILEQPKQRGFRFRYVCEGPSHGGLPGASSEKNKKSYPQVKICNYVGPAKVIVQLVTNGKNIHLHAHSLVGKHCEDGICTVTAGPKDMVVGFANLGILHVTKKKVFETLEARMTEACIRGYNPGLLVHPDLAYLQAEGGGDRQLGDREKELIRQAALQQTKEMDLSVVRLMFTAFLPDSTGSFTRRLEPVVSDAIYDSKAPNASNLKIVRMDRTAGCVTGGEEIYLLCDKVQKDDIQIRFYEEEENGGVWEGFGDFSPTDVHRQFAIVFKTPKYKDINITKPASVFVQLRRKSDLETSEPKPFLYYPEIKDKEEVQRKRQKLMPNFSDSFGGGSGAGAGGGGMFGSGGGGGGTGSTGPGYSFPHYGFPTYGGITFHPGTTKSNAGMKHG
UniProt Q04206: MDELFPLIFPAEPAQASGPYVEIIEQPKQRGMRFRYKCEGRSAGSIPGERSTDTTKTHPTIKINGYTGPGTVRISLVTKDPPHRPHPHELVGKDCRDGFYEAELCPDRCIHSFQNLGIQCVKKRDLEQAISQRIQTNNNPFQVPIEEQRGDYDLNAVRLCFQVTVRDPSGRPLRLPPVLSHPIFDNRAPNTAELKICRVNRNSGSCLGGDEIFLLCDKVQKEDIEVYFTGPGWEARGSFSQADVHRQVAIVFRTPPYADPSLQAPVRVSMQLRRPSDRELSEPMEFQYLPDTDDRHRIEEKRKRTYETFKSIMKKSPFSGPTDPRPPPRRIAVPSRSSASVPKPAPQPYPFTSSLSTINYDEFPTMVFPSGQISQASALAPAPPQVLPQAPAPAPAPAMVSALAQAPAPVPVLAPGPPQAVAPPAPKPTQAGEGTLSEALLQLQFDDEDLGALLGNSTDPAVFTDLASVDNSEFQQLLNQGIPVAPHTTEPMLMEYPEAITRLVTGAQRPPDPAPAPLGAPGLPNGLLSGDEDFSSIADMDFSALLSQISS
UniProt P09416: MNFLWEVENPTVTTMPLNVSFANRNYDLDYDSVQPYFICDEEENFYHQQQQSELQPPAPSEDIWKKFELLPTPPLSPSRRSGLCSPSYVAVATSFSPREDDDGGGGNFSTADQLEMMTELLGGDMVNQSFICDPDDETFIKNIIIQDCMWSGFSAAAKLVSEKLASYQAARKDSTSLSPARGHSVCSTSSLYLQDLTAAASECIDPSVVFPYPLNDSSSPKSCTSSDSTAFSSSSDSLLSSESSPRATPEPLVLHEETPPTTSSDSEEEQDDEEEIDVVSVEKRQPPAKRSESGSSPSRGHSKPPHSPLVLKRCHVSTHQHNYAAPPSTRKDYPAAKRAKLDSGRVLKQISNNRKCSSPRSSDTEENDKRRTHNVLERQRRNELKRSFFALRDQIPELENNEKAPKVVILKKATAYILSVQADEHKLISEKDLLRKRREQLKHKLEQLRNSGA
UniProt P15307: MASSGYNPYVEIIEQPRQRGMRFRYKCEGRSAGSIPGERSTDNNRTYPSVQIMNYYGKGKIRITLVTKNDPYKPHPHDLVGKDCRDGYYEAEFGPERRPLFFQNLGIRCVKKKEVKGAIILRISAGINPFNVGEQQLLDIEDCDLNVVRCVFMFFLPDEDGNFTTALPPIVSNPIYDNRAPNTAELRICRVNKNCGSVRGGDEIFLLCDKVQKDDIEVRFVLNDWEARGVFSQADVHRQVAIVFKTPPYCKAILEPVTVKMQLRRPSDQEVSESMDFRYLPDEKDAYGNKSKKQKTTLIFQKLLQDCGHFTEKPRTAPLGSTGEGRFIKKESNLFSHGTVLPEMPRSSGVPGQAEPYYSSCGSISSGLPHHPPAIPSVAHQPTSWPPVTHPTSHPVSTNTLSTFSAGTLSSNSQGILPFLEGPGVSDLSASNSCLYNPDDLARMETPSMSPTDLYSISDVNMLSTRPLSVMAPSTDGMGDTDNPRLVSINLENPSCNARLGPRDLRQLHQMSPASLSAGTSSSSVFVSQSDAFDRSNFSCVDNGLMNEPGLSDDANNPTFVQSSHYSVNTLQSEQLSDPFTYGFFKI
UniProt P61244: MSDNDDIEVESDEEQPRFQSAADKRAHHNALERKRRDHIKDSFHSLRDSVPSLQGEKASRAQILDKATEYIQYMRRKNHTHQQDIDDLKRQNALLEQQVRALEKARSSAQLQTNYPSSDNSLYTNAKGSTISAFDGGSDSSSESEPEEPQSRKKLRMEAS

Key:
[1] = biological target: T1, MNT (human, endogenous) (human (endogenous in LoVo)) (UniProt Q99583); test: co-IP; endogenous proteins, human LoVo lysate in mild hypotonic buffer (10 mM HEPES pH 7, 10 mM KCl, 0.1% NP-40); IP with anti-MNT (two antibodies), anti-REL, anti-p65, anti-p105/p50, IgG as control; immunoblot
T1 sequence: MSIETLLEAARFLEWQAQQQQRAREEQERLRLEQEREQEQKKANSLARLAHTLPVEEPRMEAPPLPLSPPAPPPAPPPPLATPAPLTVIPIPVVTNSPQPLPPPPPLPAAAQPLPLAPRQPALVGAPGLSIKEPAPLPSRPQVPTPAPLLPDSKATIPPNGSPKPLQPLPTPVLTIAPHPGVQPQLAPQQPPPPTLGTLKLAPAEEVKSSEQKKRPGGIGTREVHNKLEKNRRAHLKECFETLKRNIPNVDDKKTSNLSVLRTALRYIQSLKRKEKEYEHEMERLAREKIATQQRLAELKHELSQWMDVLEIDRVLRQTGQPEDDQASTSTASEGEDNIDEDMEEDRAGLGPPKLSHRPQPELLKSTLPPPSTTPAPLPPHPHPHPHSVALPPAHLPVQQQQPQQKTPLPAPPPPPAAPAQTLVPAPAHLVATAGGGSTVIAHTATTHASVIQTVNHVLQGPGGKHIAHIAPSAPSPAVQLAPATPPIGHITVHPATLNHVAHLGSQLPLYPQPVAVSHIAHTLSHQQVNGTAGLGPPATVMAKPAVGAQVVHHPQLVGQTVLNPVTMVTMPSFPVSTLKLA

mouse WT MNT-HA (mouse) = biological target: T2, mouse WT MNT-HA (mouse) (UniProt O08789); test: proximity ligation; Duolink in situ PLA in C6 cells 48 h after transfection with WT MNT-HA and REL-flag vectors; antibody pairs anti-MNT/anti-REL, anti-MYC/anti-MAX (positive control)
T2 sequence: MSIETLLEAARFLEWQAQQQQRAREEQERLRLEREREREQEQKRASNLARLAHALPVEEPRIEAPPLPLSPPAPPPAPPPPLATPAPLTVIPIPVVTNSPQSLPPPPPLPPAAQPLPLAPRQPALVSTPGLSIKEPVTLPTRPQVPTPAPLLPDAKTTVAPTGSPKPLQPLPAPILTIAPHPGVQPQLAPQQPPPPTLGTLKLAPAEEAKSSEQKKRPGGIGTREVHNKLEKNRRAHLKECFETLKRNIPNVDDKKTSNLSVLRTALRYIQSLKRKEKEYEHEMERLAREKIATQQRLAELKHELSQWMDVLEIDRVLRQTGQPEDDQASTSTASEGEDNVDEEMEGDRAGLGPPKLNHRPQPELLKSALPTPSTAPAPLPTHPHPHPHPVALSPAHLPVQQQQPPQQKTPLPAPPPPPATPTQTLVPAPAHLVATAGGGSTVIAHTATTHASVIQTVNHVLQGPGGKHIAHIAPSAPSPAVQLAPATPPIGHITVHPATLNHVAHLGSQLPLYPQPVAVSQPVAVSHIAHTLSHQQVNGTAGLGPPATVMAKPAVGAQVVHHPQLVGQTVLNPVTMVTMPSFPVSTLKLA

ΔNt2 MNT-HA (mouse) = biological target: T3, ΔNt2 MNT-HA (mouse) (UniProt O08789); test: co-IP; C6 lysates 48 h after transfection with REL-flag (mouse) and MNT-HA deletion constructs (mouse); IP with anti-HA, IgG as control; immunoblot of HA and REL
T3 sequence: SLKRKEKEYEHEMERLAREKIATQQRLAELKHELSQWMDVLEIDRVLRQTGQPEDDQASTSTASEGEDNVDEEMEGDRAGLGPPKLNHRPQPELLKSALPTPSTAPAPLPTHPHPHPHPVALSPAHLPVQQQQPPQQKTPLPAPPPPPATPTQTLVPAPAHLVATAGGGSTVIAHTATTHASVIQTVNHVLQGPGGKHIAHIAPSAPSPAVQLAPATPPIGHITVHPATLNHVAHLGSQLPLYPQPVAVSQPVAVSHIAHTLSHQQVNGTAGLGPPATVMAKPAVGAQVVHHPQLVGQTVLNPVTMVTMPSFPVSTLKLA

ΔNt1 MNT-HA (mouse) = biological target: T4, ΔNt1 MNT-HA (mouse) (UniProt O08789); test: as above
T4 sequence: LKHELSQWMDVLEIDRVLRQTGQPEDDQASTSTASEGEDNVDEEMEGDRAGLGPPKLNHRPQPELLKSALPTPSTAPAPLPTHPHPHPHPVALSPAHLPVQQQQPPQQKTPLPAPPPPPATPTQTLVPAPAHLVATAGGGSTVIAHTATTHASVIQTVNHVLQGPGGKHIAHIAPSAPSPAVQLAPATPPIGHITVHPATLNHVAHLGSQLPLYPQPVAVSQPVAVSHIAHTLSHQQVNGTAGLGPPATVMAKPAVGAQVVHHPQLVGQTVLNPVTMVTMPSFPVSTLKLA

[2] = biological target: MAX (rat, endogenous) (rat (endogenous in C6)) (UniProt P52164); test: proximity ligation; Duolink in situ PLA in C6 cells 48 h after transfection with WT MNT-HA and REL-flag vectors; antibody pairs anti-MNT/anti-REL, anti-MYC/anti-MAX (positive control)
[3] = biological target: T5, MNT (mouse, endogenous) (mouse (endogenous in Neuro-2a)) (UniProt O08789); test: co-IP; endogenous proteins, mouse Neuro-2a lysate; IP with anti-MNT; immunoblot
T5 sequence: T2 sequence

[4] = biological target: p50 (human, endogenous) (human (endogenous in LoVo)) (UniProt P19838); test: co-IP; endogenous proteins, human LoVo lysate in mild hypotonic buffer (10 mM HEPES pH 7, 10 mM KCl, 0.1% NP-40); IP with anti-MNT (two antibodies), anti-REL, anti-p65, anti-p105/p50, IgG as control; immunoblot
[5] = biological target: p65 (human, endogenous) (human (endogenous in LoVo)) (UniProt Q04206); test: as above
[6] = biological target: p65 (human, endogenous) (human (endogenous in LoVo)) (UniProt Q04206); test: proximity ligation; Duolink in situ PLA in untransfected LoVo cells; antibody pairs anti-MNT/anti-REL, anti-p65/anti-REL (positive control)
[7] = biological target: T6, c-REL (human, endogenous) (human (endogenous in LoVo)), Q04864; test: co-IP; LoVo lysates 72 h after infection with shRNAs against MNT (shMNT) or scrambled shRNA (shSCR); IP with anti-REL, IgG as control; immunoblot of REL and IκBα; conditions: remark: other sources report otherwise
T6 chain: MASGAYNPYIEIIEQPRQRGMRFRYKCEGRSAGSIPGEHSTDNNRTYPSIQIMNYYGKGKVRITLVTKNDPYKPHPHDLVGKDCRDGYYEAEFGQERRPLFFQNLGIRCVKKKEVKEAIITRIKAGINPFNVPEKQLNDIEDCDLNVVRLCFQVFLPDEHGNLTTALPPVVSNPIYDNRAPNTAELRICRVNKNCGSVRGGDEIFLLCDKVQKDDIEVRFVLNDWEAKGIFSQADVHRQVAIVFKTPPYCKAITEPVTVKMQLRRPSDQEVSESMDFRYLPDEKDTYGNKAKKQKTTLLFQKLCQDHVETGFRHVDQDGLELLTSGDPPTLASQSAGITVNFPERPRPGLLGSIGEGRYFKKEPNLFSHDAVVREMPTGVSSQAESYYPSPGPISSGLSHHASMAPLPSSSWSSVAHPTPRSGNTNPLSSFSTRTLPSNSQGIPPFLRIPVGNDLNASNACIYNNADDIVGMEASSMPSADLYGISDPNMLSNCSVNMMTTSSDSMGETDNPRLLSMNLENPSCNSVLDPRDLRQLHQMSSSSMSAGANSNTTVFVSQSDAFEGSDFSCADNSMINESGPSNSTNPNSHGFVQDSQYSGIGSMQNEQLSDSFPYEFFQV

- binding [1]: no binding
Molecule: p65 (human, endogenous) (from UniProt Q04206 1-551)

- binding [2]: binds
Molecule: MYC (rat, endogenous) (from UniProt P09416 1-453)

- binding [3]: binds
Molecule: c-REL (mouse, endogenous) (from UniProt P15307 1-587)

- binding [7]: binds
B2: IκBα (human, endogenous), P25963 1-317 (protein)
chain: MFQAAERPQEWAMEGPRDGLKKERLLDDRHDSGLDSMKDEEYEQMVKELQEIRLEPQEVPRGSEPWKQQLTEDGDSFLHLAIIHEEKALTMEVIRQVKGDLAFLNFQNNLQQTPLHLAVITNQPEIAEALLGAGCDPELRDFRGNTPLHLACEQGCLASVGVLTQSCTTPHLHSILKATNYNGHTCLHLASIHGYLGIVELLVSLGADVNAQEPCNGRTALHLAVDLQNPDLVSLLLKCGADVNRVTYQGYSPYQLTWGRPSTRIQQQLGQLTLENLQMLPESEDEESYDTESEFTEFTEDELPYDDCVFGGQRLTL

The next lines start with the molecule.

Molecule: p50 (human, endogenous) (from UniProt P19838 1-433)
- binding [1]: no binding

Molecule: mouse c-Rel cFlag (from UniProt P15307 1-587)
- binding (mouse WT MNT-HA (mouse)): binds
- binding (ΔNt2 MNT-HA (mouse)): binds
- binding (ΔNt1 MNT-HA (mouse)): binds

Molecule: MAX (human, endogenous) (from UniProt P61244 1-160)
- binding [1]: binds

B1: c-REL (human, endogenous) (protein, UniProt Q04864 1-619)
chain: T6 chain
- binding [4]: binds
- binding [5]: binds
- binding [6]: binds
